Assay results taken from PubChem BioAssay AID588453 (National Center for Advancing Translational Sciences (NCATS), 2011).
About 4,000 (1%) of roughly 390,000 compounds were called active. The inconclusive results got no clear call from the source; some entries with a clear call stand among them for comparison. Calls follow the shape of the dose curve; as a rule, active = well fitted inhibition curve with a large enough effect; inconclusive = small, poorly fitted or top-dose-only effect; inactive = no such curve, though single readings can be large or run the other way. Potencies beside an inconclusive call are fits to weak or partial responses and may not hold up.

What follows are molecules tested against Thioredoxin reductase 1, cytoplasmic (Rattus norvegicus) (UniProt O89049) (assay: qHTS Assay for Inhibitors of Mammalian Selenoprotein Thioredoxin Reductase 1 (TrxR1): qHTS). Settings: recombinant rTrxR1, NADPH fluorescence consumption, selenite substrate; series mostly up to 114 µM; activity change, negative = inhibition: at the top concentration.
In short: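 Rat TrxR1 (90 nM in the dispensed reagent) was pre-reduced with 400 uM NADPH for 5 min at room temperature, then incubated with compound for 15 min. After 400 uM selenite was added, NADPH fluorescence (Ex 340/Em 450 nm) was followed for 8 min.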
% is scaled to controls: 0 for no effect and ±100 for the full control effect; potency is read from the fitted curve at half-maximal effect; tags tell the direction and shape of the fitted curve.
Also: nearly all actives have a fitted effect of over 65% in size.

Chain of UniProt O89049 (O89049 whole entry, looked up): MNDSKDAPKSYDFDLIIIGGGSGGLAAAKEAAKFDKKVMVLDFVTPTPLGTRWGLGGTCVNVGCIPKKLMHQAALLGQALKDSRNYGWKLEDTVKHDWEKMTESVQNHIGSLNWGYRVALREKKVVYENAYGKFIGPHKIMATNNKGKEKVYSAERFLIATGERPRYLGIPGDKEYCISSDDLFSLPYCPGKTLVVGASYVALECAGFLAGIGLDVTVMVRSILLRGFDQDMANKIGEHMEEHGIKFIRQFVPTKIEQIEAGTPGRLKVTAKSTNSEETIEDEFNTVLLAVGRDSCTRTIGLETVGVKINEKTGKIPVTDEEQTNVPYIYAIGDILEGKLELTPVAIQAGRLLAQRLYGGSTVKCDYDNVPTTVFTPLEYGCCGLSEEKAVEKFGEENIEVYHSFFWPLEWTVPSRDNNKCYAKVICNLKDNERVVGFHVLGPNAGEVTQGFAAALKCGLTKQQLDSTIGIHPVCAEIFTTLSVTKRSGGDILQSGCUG

Row | SMILES | activity change, negative = inhibition | Potency
1 | Cc1cc2c(cc3c(SCc4ccccc4Cl)nnc(C)n32)o1 | inactive: 17.9% | 
2 | CC(=O)C1=C(C)NC(SCC(=O)c2ccc(F)cc2)=C(C#N)C1CC(C)C (stereo not drawn) | inactive: -37.5% | 
3 | Cn1c(-c2ccc(C=O)s2)nc2c3ccccc3c3ccccc3c21 | inactive: -12.6% | 
4 | Cc1ccc(CSc2nc(-c3ccccc3C)nc3c2Cc2c(CO)cnc(C)c2O3)cc1 | inactive: 8.23% | 
5 | O=C(COC(=O)c1ccc2c(c1)C(=O)N(Cc1ccncc1)C2=O)Nc1ccccc1[N+](=O)[O-] |  | inconclusive: 70.8 µM [inhibitor, partial curve]
6 | CCn1c(SCC(=O)N2c3ccccc3CC2C)nnc1-c1ccco1 (stereo not drawn) |  | inconclusive: 56.2 µM [inhibitor, partial curve, poor fit]
7 | CC1=C(C)CC(C(=O)Nc2ccc(C(=O)N3CCOCC3)cc2)C(C(=O)O)C1 (stereo not drawn) | inactive: 10.2% [at 57.1 µM] | 
8 | O=c1[nH]c2cc3c(cc2cc1C(c1nnnn1CC1CCCO1)N1CCCC1)OCO3 (stereo not drawn) |  | inconclusive: 56.2 µM [inhibitor, partial curve, poor fit]
9 | Cc1ccc(NC(=O)C(=O)NCC2(c3ccccc3)CCCC2)cc1C | inactive: 7.4% | 
10 | COc1ccc(-c2nc(CS(=O)(=O)CC(=O)Nc3cccc(C(C)=O)c3)c(C)o2)cc1 |  | inconclusive: 79.4 µM [inhibitor, single point]
11 | COc1cc(OC)c(OC)cc1CNCCCSc1nnnn1C | inactive: 17.4% | 
12 | N=c1c(C(=O)NC2CCCCC2)cc2c(=O)n3ccccc3nc2n1CC1CCCO1 (stereo not drawn) |  | inconclusive: 56.2 µM [inhibitor, partial curve, poor fit]
13 | Cc1ccc(C)c(NC(=O)C(=O)NCC2CCCN2S(=O)(=O)c2cccs2)c1 (stereo not drawn) | inactive: 0.966% | 
14 | CN(C)C(CNC(=O)CCc1nc2ccccc2s1)c1ccccc1 (stereo not drawn) |  | inconclusive: 89.1 µM [inhibitor, single point]
15 | COc1ccc(N2C(=O)C3C(C2=O)C(C(=O)c2ccccc2)N2CCCC32)cc1 (stereo not drawn) |  | inconclusive: 89.1 µM [inhibitor, single point]
16 | COc1cc(-c2nc3ccc(Cl)cn3c2Nc2ccc3c(c2)OCCO3)ccc1O | inactive: -1.94% | 
17 | C#CCOCCOCCOCCNc1nc(N2CCOCC2)nc(N2CCN(C(=O)[C@H](CCCN=C(N)N)n3cc(C(N)[C@@H](C)CC)nn3)CC2)n1 (stereo partly drawn) |  | inconclusive: 70.8 µM [inhibitor, partial curve]
18 | O=S(=O)(c1ccccc1)N1N=C(c2cccs2)CC1c1ccc(F)cc1 (stereo not drawn) | inactive: -9.22% | 
19 | CN1CCN(/C=N/c2c(C#N)cnn2-c2ccccc2)CC1 |  | inconclusive: 22.4 µM [inhibitor, single point]
20 | COc1cccc(NC(=O)Cn2c(=O)n(-c3ccccc3)c(=O)c3c2c2cc(OC)ccc2n3C)c1 | inactive: 2.04% | 
21 | CN1C(=O)NC(c2ccccc2)C2=C1CN(Cc1ccco1)C2=O (stereo not drawn) |  | inconclusive: 56.2 µM [inhibitor, partial curve]
22 | COc1ccc(C(=O)Oc2c(Sc3ccc(Cl)cc3)c(C)nn2C(C)(C)C)cc1OC | inactive: 1.72% | 
23 | O=C(Cn1c(=O)c2ccccc2n(CC(=O)Nc2ccc(Cl)cc2)c1=O)NCCc1ccccc1 |  | inconclusive: 89.1 µM [inhibitor, single point]
24 | O=C(Oc1cccc(C(=S)N2CCOCC2)c1)c1ccc([N+](=O)[O-])cc1[N+](=O)[O-] | inactive: -2.59% [at 57.1 µM] | 
25 | CCOC(=O)N1CCN(C2CC(=O)N(c3ccc(Cl)c(Cl)c3)C2=O)CC1 (stereo not drawn) | inactive: 1.6% [at 57.1 µM] | 

Row | SMILES | activity change, negative = inhibition | Potency
26 | O=S(=O)(NCc1ccccc1)c1ccc(Cl)cc1 | inactive: -2.75% | 
27 | S=c1[nH]c2cnc(Cl)nc2[nH]1 |  | inconclusive: 5.62 µM [inhibitor, partial curve, poor fit]
28 | O=C(NC(=S)NCCc1ccccn1)c1ccco1 | inactive: 12.4% | 
29 | CC(C)N(Cc1ccccc1)C(=O)c1ccc2c(c1)OCO2 | inactive: 18.5% | 
30 | CCOc1cccc(/C=N/N2C(=O)CSC2=S)c1O |  | inconclusive: 31.6 µM [inhibitor, single point]
31 | O=c1c2sc3ccccc3c2n(Cc2ccccc2Cl)c(=O)n1Cc1ccccc1 |  | inconclusive: 89.1 µM [inhibitor, single point]
32 | COc1ccccc1-c1nc(S(=O)(=O)c2ccccc2)c(N2CCOCC2)o1 |  | inconclusive: 10 µM [inhibitor, full curve]
33 | S=C(NCc1ccccn1)Nc1ccc(Br)cc1Cl | inactive: 15.5% [at 57.1 µM] | 
34 | COc1ccc(CCNC(=O)CSc2ccsc2[N+](=O)[O-])c(OC)c1 |  | inconclusive: 56.2 µM [inhibitor, partial curve, poor fit]
35 | CCCCn1c(SCC(=O)NCc2ccco2)nc2ccc(N3CCOCC3)cc2c1=O |  | inconclusive: 10 µM [inhibitor, partial curve, poor fit]
36 | O=C(C1=C[C@H](C2CCCCC2)C[C@H](OCc2ccc(CO)cc2)O1)N1CCN(Cc2ccccc2)CC1 | inactive: 9.17% | 
37 | CCn1c(C)nc2cc(C(=O)NN=C(C)c3ccc(C#N)cc3)ccc21 | inactive: -0.664% | 
38 | COc1cccc(OC)c1C(=O)NCCN1CCN(C(=O)c2c(OC)cccc2OC)CC1 |  | inconclusive: 70.8 µM [inhibitor, partial curve]
39 | O=C(Cc1ccccc1)N/N=C/c1cc(Br)c(Br)o1 |  | inconclusive: 31.6 µM [inhibitor, single point]
40 | COc1ccccc1NS(=O)(=O)c1c(C)nc2sccn2c1=O | inactive: 7.8% | 
41 | S=C(NCCc1ccccc1)Nc1ncccn1 |  | inconclusive: 15.8 µM [inhibitor, partial curve, poor fit]
42 | COc1ccc(-c2ccc(-c3noc(-c4ccccc4)n3)c(OC)n2)cc1 |  | inconclusive: 39.8 µM [inhibitor, single point]
43 | CCC(CC)C1=NN2C(=N)/C(=C\c3cc(C)n(-c4cccc(C)c4)c3C)C(=O)N=C2S1 |  | inconclusive: 89.1 µM [inhibitor, single point]
44 | CC(C)(C)C(=O)NC(=S)NNC(=O)c1sc2ccccc2c1Cl |  | inconclusive: 15.8 µM [inhibitor, full curve]
45 | O=C(O)C1C2C=CC(O2)C1C(=O)Nc1ccc(S(=O)(=O)N2CCc3ccccc32)cc1 (stereo not drawn) |  | inconclusive: 20 µM [inhibitor, full curve]
46 | Cc1ccc(/C=C/C(=O)Nc2sc(C)c(C)c2C(=O)OC(C)C)o1 |  | inconclusive: 63.1 µM [inhibitor, partial curve, poor fit]
47 | Cc1ccc(C)c(C(=O)Cn2ncc(Cl)c(Cl)c2=O)c1 |  | inconclusive: 39.8 µM [inhibitor, partial curve]
48 | CC(C)Cn1c(-c2ccc(F)cc2)n[nH]c1=S |  | inconclusive: 7.08 µM [inhibitor, partial curve, poor fit]
49 | O=C1CN(C(=O)COc2ccccc2F)c2ccccc2N1 |  | inconclusive: 39.8 µM [inhibitor, single point]
50 | CC(C)(C)OC(=O)NC(Cc1ccccc1)C(O)c1ccco1 (stereo not drawn) | inactive: -17.8% | 

Row | SMILES | activity change, negative = inhibition | Potency
51 | Cc1ccc(NC(=O)c2cnccn2)cc1 | inactive: 15.8% [at 57.1 µM] | 
52 | COC(=O)CSc1nc2ccccc2nc1SCC(=O)OC |  | inconclusive: 14.1 µM [inhibitor, partial curve, poor fit]
53 | O=C(CN1CCN(CC(=O)Nc2ccc(OCc3ccccc3)cc2)CC1)Nc1ccc(F)cc1 |  | inconclusive: 20 µM [inhibitor, full curve]
54 | O=C(Oc1ccc(Cl)c2cccnc12)N1CCOCC1 | inactive: 1.02% [at 57.1 µM] | 
55 | CCCCCCCNC1=CC(=O)CC(c2ccccc2)C1 (stereo not drawn) |  | inconclusive: 89.1 µM [inhibitor, single point]
56 | Cc1ccc(C)c(NC(=O)CN2C(=O)c3cccc4cccc2c34)c1 | inactive: 20% | 
57 | CCN(CC)C(=O)c1sc(NC(=O)c2nc3ncccn3n2)c(C(=O)OC)c1C | inactive: 9.21% | 
58 | CC1CCCN(C(=O)/C(=C/c2ccco2)NC(=O)c2ccccc2)C1 (stereo not drawn) |  | inconclusive: 17.8 µM [inhibitor, full curve]
59 | CCOC(=O)C1=NN(c2ccccc2)C(=O)/C1=C\c1ccc(N(C)C)cc1 |  | inconclusive: 70.8 µM [inhibitor, partial curve]
60 | CN1CCc2ccccc2CC1=O |  | inconclusive: 89.1 µM [inhibitor, single point]
61 | C=CCSc1nccc(=O)[nH]1 | inactive: 1.37% [at 57.1 µM] | 
62 | COC(=O)c1ccsc1NC(=O)CCS(=O)(=O)c1ccc(Cl)cc1 |  | inconclusive: 44.7 µM [inhibitor, partial curve]
63 | COC(=O)C1NN=C(C(=O)c2ccccc2)C1c1ccccc1 (stereo not drawn) |  | inconclusive: 79.4 µM [inhibitor, single point]
64 | CCS(=O)(=O)Nc1ccc(C2=NN(C(=O)c3ccco3)C(c3ccco3)C2)cc1 (stereo not drawn) | inactive: -28.3% | 
65 | Cc1ncc(CO)c2c1Oc1nc(-c3ccc(Cl)cc3)nc(SCC(=O)N3CCCCC3)c1C2 |  | inconclusive: 20 µM [inhibitor, full curve]
66 | O=C(Nc1nccs1)c1ccc(-c2ccc(Cl)cc2)o1 |  | inconclusive: 89.1 µM [inhibitor, partial curve, poor fit]
67 | Cc1ccc2ccc(C(Nc3cccc(C(F)(F)F)c3)c3cccnc3)c(O)c2n1 (stereo not drawn) |  | inconclusive: 8.91 µM [inhibitor, full curve]
68 | Cn1ccc(=S)c2ccccc21 |  | active: 22.4 µM
69 | Cc1nc2ccc(C(=O)N/N=C/c3cc([N+](=O)[O-])ccc3O)cc2[nH]1 | inactive: -23% | 
70 | O=C(c1cc(-c2ccco2)nn1-c1cccc(Cl)c1)N1CCCCC1 |  | active: 14.1 µM
71 | COc1cccc(-c2cc3c(=O)n(-c4ccccc4)c(=S)[nH]c3s2)c1 |  | inconclusive: 3.16 µM [inhibitor, partial curve, poor fit]
72 | CC(=O)c1cccc(NC(=O)CN2C(=O)CCc3cc(S(=O)(=O)N4CCCCC4)ccc32)c1 | inactive: 2.12% [at 57.1 µM] | 
73 | CC(C)(C)NC(=O)C1N(c2cccnc2)C(=O)C2C(C(=O)Nc3ccccc3F)C3(C)C=CC21O3 (stereo not drawn) |  | inconclusive: 35.5 µM [inhibitor, full curve]
